Measurements taken from the RNAGym collection of RNA variant scans (doi:10.7554/elife.90254).
Read counts are not given, so values of variants with three or more changes are uncertain.

B1: LINE1-mini (parent)
chain: GGCAGAGCUCAACACAGCGUGGCAAAGUGGCUGUGGCUAGACUGCC

Variants of: B1
Test: self-cleavage, relative activity (ratio to wild type); higher = more cleavage; in vitro, sequencing; the parent is a self-cleaving ribozyme
A12G C18U A26C G27U G29C showed a self-cleavage of 0.
In the case of A14U G19A A24C C37A, the self-cleavage is reported as 0.14.
For U9A C18G G35A, the self-cleavage was 0.13.
With C3G A4G A24G U32A A41C the self-cleavage was 0.03.
For C8G C15A G17A G19A G44A, the self-cleavage was 0.07.
Variant G5U G7U C46U has a self-cleavage of 0.2.
Work on G22C A26U G30A G40A yielded a self-cleavage of 0.08.
G1A G35U C37A showed a self-cleavage of 0.11.
In the case of A6G C13U G17U G22C G44U C45U, the self-cleavage is reported as 0.06.
Variant A11G C15U C18A A26G G29C C42U has a self-cleavage of 0.
Work on A6G A11G A24G U38C yielded a self-cleavage of 0.01.
Work on C3U G5U C45U yielded a self-cleavage of 0.76.
C13A G22U A41G U43A showed a self-cleavage of 0.08.
Variant G21C C31G U32G C37A C45U has a self-cleavage of 0.01.
For G22A C23U U34C C45A, the self-cleavage was 0.04.
Variant A4C G7C U34C has a self-cleavage of 0.07.
For U20C G22A U32G G35A, the self-cleavage was 0.03.
With G1C C8U A14G U38G the self-cleavage was 0.01.
Variant A4C C13U U20A C31G G40U C42G U43A has a self-cleavage of 0.01.
Variant G1C C31A U34G has a self-cleavage of 0.
Variant G2C A6C G22A has a self-cleavage of 0.12.
Work on C3A U9C G19U A26C G29A C45G yielded a self-cleavage of 0.01.
A4U C18U G35U C42G gave a self-cleavage of 0.03.
Work on G1A G7C U32C yielded a self-cleavage of 0.47.
With C8G A16G G17U the self-cleavage was 0.1.
With G1A C3A C10A G17U G21C A26C the self-cleavage was 0.34.
Variant U9C C15G G22C A39C C42G has a self-cleavage of 0.01.
In the case of C31A G35U C45G, the self-cleavage is reported as 0.05.
For G2U C8A C23U, the self-cleavage was 0.09.
Work on A14G A41U C46U yielded a self-cleavage of 0.32.
In the case of C3G C13G G17C A26U G33A, the self-cleavage is reported as 0.04.
C23U G30A G36A showed a self-cleavage of 0.56.
For C10A C13A G29U, the self-cleavage was 0.01.
G5U A16C C18G G30C G44U gave a self-cleavage of 0.03.
G5C G7U G17C A25U C45G showed a self-cleavage of 0.11.
With C10G G17C U34G G40A the self-cleavage was 0.01.
G1U C10A A11C U20C showed a self-cleavage of 0.01.
Variant G1U G7A U38G has a self-cleavage of 0.01.
For G17A A25U U43A C46U, the self-cleavage was 0.02.
Variant G1U C8A C45U has a self-cleavage of 0.17.
For C13A U20C G21C, the self-cleavage was 0.07.
For C3U A4G A11C G35U, the self-cleavage was 0.01.
U34A C37G A39G showed a self-cleavage of 0.08.
In the case of A24U A26G C42A G44U, the self-cleavage is reported as 0.07.
C8U A11U C18G showed a self-cleavage of 0.04.
In the case of C8G G27U C31A U32G G35U G36U, the self-cleavage is reported as 0.01.
C23A A24G C42U C46U gave a self-cleavage of 2.1.
Work on G1A C15U G19A A26C G35A yielded a self-cleavage of 0.08.
In the case of A11G G19C U34A G36U U43G C46G, the self-cleavage is reported as 0.
In the case of C3U A4U C18U, the self-cleavage is reported as 0.08.
Variant A25C G30U U32A C46A has a self-cleavage of 0.03.
For G27A C31A G40U, the self-cleavage was 0.08.
With A4U C37G C42U the self-cleavage was 0.01.
G7U C10U A11G A12U G44A gave a self-cleavage of 0.01.
Work on G7U A24G G33C C42A G44U yielded a self-cleavage of 0.02.
In the case of A14C G44A C45U, the self-cleavage is reported as 0.06.
In the case of C10A A11U G35U C42A, the self-cleavage is reported as 0.
For A6G C23U U38A C42A C45G, the self-cleavage was 0.11.
With C10G G27U U28G the self-cleavage was 0.06.
In the case of G1A G17A U28A C45U, the self-cleavage is reported as 0.09.
Variant C3A G5C A14C G19U G33C has a self-cleavage of 0.09.
Work on G5U C10U G17U G21A C42G yielded a self-cleavage of 0.02.
For C8U U32A G33A, the self-cleavage was 0.06.
Variant C8U U32G G35U has a self-cleavage of 0.09.
G2C C15A C45G showed a self-cleavage of 0.12.
G1U A4G G19A U38A G40U showed a self-cleavage of 0.03.
G7C U9A C23A G30A G44A showed a self-cleavage of 0.02.
U9A C13A C37A A41U gave a self-cleavage of 0.63.
With C23U A26G U38G the self-cleavage was 0.
In the case of G1A A11G C18G U32C, the self-cleavage is reported as 0.04.
For C15U G19C U32A, the self-cleavage was 0.05.
In the case of A14U G17C C45A, the self-cleavage is reported as 0.
In the case of G2C G7A G19A, the self-cleavage is reported as 0.05.
Work on G5C C8U C18G C37G yielded a self-cleavage of 0.04.
Work on G1C G5U C8G G22U G30U yielded a self-cleavage of 0.02.
G5C C42A G44C showed a self-cleavage of 0.12.
Work on G5A A6G U20G G36A yielded a self-cleavage of 1.88.
G27U G29U G33C showed a self-cleavage of 0.08.
Work on C15U C31A U38A C42G yielded a self-cleavage of 0.03.
Work on U28G G30C G36A A39U C45G yielded a self-cleavage of 0.01.
Variant G30A G35C U38G A39U U43A has a self-cleavage of 0.04.
With G1A U9A C10U the self-cleavage was 0.17.
A12U U20C U32G G35U C42A gave a self-cleavage of 0.
For G2A A11U A26G C31U, the self-cleavage was 0.06.
G2C G21C G29U G35U gave a self-cleavage of 0.
C8A G35U C37G showed a self-cleavage of 0.03.
Work on A4C C10G U28G yielded a self-cleavage of 0.03.
A11U C42G C45A showed a self-cleavage of 0.
In the case of U20G A24C G36C, the self-cleavage is reported as 0.14.
For C8A C15U G30C G40A C46G, the self-cleavage was 0.64.
In the case of C10A A12G G17A A26U A41U C45U, the self-cleavage is reported as 0.02.
C3G G7C C10G C13U A24U showed a self-cleavage of 0.03.
C3A A16U U20A A25U gave a self-cleavage of 0.7.
Work on G2A C8U G19A C31U G40U U43G yielded a self-cleavage of 1.39.
In the case of A4C A14G C42U U43A, the self-cleavage is reported as 0.26.
In the case of C10G A11C C18A, the self-cleavage is reported as 0.02.
With G17U G35A G44A the self-cleavage was 0.13.
A11U A24C A25G gave a self-cleavage of 0.05.
Work on G5C C13G C18A A25G U34G yielded a self-cleavage of 0.02.
For G1A A16G C18A C23U A41U, the self-cleavage was 0.04.
For G17C U38G G40A C42U, the self-cleavage was 0.06.
A16G G17A U34G gave a self-cleavage of 0.04.
G1U G5U A14U C23G G30C U32G showed a self-cleavage of 0.
A4U A14G A16G gave a self-cleavage of 0.04.
With C13A C18U A26U C42U the self-cleavage was 0.05.
In the case of G17C G22U A24G, the self-cleavage is reported as 0.1.
With G7U A12G C13G A24G the self-cleavage was 0.05.
With G1A G5A G33U G35A the self-cleavage was 0.17.
For G1A A25C A39U, the self-cleavage was 0.22.
For C15U U20C C23G G44U, the self-cleavage was 0.24.
Work on A11G G22U C31A yielded a self-cleavage of 0.01.
In the case of C18A G21U A24C C31A A41U, the self-cleavage is reported as 0.02.
For C3U A6C A11U, the self-cleavage was 0.05.
C3U A24C C31G gave a self-cleavage of 0.03.
For C8U U9G G19A C23G U32A A41U C42A, the self-cleavage was 0.13.
In the case of A4C A6U C10A, the self-cleavage is reported as 0.03.
C3G G5A U38C C45G showed a self-cleavage of 0.02.
With A6U U38G C46U the self-cleavage was 0.
For G7A A11U G22U U28C A41U G44A, the self-cleavage was 0.02.
For C3U G29A G36A C42U, the self-cleavage was 0.25.
G7U U9G G27A showed a self-cleavage of 0.12.
Variant G7U U9G A24C A26U has a self-cleavage of 0.01.
A26C U28C C37U U43C gave a self-cleavage of 0.02.
C10A C15A G21U C42U C45A gave a self-cleavage of 0.01.
Work on G2C G29C C45G yielded a self-cleavage of 0.43.
In the case of C10A G19C G22A C46A, the self-cleavage is reported as 0.04.
Variant A6G C10A A11G has a self-cleavage of 0.02.
Variant U32C G33A G40U has a self-cleavage of 0.05.
Variant U9G G21U A39G has a self-cleavage of 0.02.
For C8U C23G G35A, the self-cleavage was 0.68.
For C3G G21C C42A, the self-cleavage was 0.07.
C3U C13A A25C gave a self-cleavage of 0.04.
For A4C A6C G19A C37U C46U, the self-cleavage was 0.1.
In the case of G5C G7A C18A G33U C37U C46A, the self-cleavage is reported as 0.02.
Work on A6U G19C A39C yielded a self-cleavage of 0.1.
G33A G35U C46A showed a self-cleavage of 0.
Work on A25G U28G A41U yielded a self-cleavage of 0.11.
Variant G2U C13U A16C A25C G33A has a self-cleavage of 0.04.
For C10A G36U G44U, the self-cleavage was 0.01.
For C8U A11C G27A U32G G44C, the self-cleavage was 0.02.
With U20C C23A U32C the self-cleavage was 0.16.
Variant U32A G33U U38A has a self-cleavage of 0.12.
In the case of A6G C13U G21A C31G, the self-cleavage is reported as 0.01.
Work on G2A C8G U9C A11U C18A U38C C45U yielded a self-cleavage of 0.
C3G A4C U9G U38A C46A gave a self-cleavage of 0.09.
A11G A12G A16U G33A U43A G44A gave a self-cleavage of 0.
With C15U U34G A41U C42U the self-cleavage was 0.
Variant A11U C18U G29U C31G has a self-cleavage of 0.03.
For C3G G17A C23U G35U, the self-cleavage was 0.27.
With A4C C10U C45U the self-cleavage was 0.1.
A6C A39U C42A gave a self-cleavage of 0.06.
With C3G G5C A6C A11G G21U C46U the self-cleavage was 0.07.
For C3A A4C A16G, the self-cleavage was 0.06.
C3U A16U G19C showed a self-cleavage of 0.05.
In the case of U9A C10A A16G G40A U43G G44A, the self-cleavage is reported as 0.01.
With G19A G22C A26U the self-cleavage was 0.37.
A16C G19A C31A A39C C42G showed a self-cleavage of 0.
For U9C G17A C37U, the self-cleavage was 0.02.
Variant C15U A24C G40C G44C has a self-cleavage of 0.19.
C3G A6U C10G A14C U20A G33A A39U gave a self-cleavage of 0.
A6C A14C A24U gave a self-cleavage of 0.14.
G21C G22U C46U gave a self-cleavage of 0.48.
In the case of C3A C13G G19C G22A G30A G35C, the self-cleavage is reported as 0.21.
In the case of C3A C15G G21A G22A C42A C46U, the self-cleavage is reported as 0.07.
Work on C3U C18A G22A C23G yielded a self-cleavage of 0.01.
For G5C G17C C31U, the self-cleavage was 0.01.
Variant A4G A25C U32C C37U has a self-cleavage of 0.04.
